# ± gives the standard deviation of the averaged measurements. This is one part of the list.
# Test system: PfAP2-LT AP2 domain (GST-tagged)
# Assay: gcPBM binding intensity (ln(normalized median fluorescence intensity)); higher = stronger DNA binding
# Method in brief: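 The highest Masliner-normalised natural-log median intensity across replicate spots of either probe orientation is reported as binding intensity. GST-tagged P. falciparum DNA-binding domains expressed in E. coli were applied for 1 h to an Agilent 4 × 180k array of primer-extended double-stranded 36-bp intergenic genomic probes plus negative controls, and bound protein was detected with Alexa488 anti-GST antibody and scanned at 488 nm.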
row,Sequence,gcPBM binding intensity (ln)
1,TAAAAAGTACATTATTCATGGCCTATTACATTTTTT [GTGCAC_negctrl_site282],8.9 ± 0.48
2,AAAAAAAAAAAATGTGCACACGCGTACAGACAAAAA [CACACA_site2005],9.43 ± 0.35
3,ATATTTTACATATTTGCACACATATATTTAAATACA [CACACA_site4628],9.2 ± 0.24
4,ACACAAAAATAGTTTTTTATATTGTTAACCTTATAT [XGTACX_negctrl_site123],8.74 ± 0.45
5,ATAATATATATGAAATGTACATAAATTTAATGCGAC [XGTACX_site5394],9.18 ± 0.45
6,TAAATACAAGTAAAAAGTACAGAAAAATTATATATA [XGTACX_site1758],8.81 ± 0.54
7,TTTATTTGGACATATACACACTTAAATATGTTTATT [CACACA_site6021],8.87 ± 0.34
8,TTTATTTTGTTTTCTTGTACATAAATAATTACATAT [XGTACX_site4227],8.85 ± 0.48
9,TATAAAAAATTCAATACACACCATATATAAATATAT [CACACA_site6060],8.84 ± 0.4
10,AAGAGAAATGGGCACACACACACATATTATAGATAT [CACACA_site6828],9.8 ± 0.21
11,TGATTCACTATAGTAGTGCATATTATATATATATAT [GTGCAC_site9975],8.94 ± 0.3
12,TATAATAATTCATAATGTACTTTTATCAAAAAAGTA [XGTACX_site6868],8.37 ± 0.38
13,CAAATACACGGACACACACACACAAAAAAAAAAAAA [CACACA_site6385],10 ± 0.71
14,AAATTATTGTAAAATAGTACAGTGAAACATAAAGTT [XGTACX_site589],8.93 ± 0.43
15,TTTTTATTCAACAAAAATATCAAACATAATTATAAA [CACACA_negctrl_site616],8.21 ± 0.37
16,AATATTTATATTTACACACACATAATACATATATGT [CACACA_site33],9.46 ± 0.26
17,TTCCTTTAACCCTGCACACATACATACATTTATATG [CACACA_site3953],9.29 ± 0.46
18,ATTTTTATGTCTTTCTATAAATCGAAAATATACATA [CACACA_negctrl_site477],8.41 ± 0.36
19,ATATACAACTAAAGAACACACATCATTGTTCATTGG [CACACA_site3681],8.94 ± 0.35
20,AAAAAACGCACTCGTACACACATATTTTCTTTCTAA [CACACA_site3089],9.05 ± 0.38
21,ATATAATCAACTGCAAAGGTTTAAAAGGAAAAAATA [CACACA_negctrl_site989],8.66 ± 0.57
22,TTAATTACACAAAAAAGTACTTGATATTGTTTATTA [XGTACX_site3449],8.48 ± 0.43

row,Sequence,gcPBM binding intensity (ln)
1,AATATTTACCAGAAAATAAAAATATGTATATATATA [CACACA_negctrl_site351],8.63 ± 0.47
2,CGATATTCTAAGGATAGTACATAATAAAATAGAGTA [XGTACX_site4224],8.69 ± 0.51
3,ATTTATATTTTTTAATGTACATTTATATGTATACAA [XGTACX_site4555],8.76 ± 0.51
4,TAAAATAGAAATATATGTACATATATATATGTATAT [XGTACX_site4134],8.82 ± 0.47
5,TATTTTTTTAAAATAGGTACACAATCAAACATTTAT [XGTACX_site8785],8.41 ± 0.4
6,TTATAGACATATATAGGTACACATATTTTCAATCCC [XGTACX_site8230],8.79 ± 0.33
7,ATTTATTAATCATATACACACATATATTTGTATTTA [CACACA_site1336],9.07 ± 0.46
8,ATATATATATATAATACACACATAAATGAATATATA [CACACA_site316],9.12 ± 0.35
9,TTTATATAATATTCTACACACCAACAACAAACATAT [CACACA_site4478],9.1 ± 0.26
10,GCATTGATCAAACATACACACATGGTTAATAAAAAT [CACACA_site2085],9.25 ± 0.33
11,GTGATTTCTATGAATTGTACTTAAATATAGTTATAT [XGTACX_site231],8.69 ± 0.43
12,CGTCCAAAATATCCTTCACACACGAACAGTTTCATT [CACACA_site2729],9.2 ± 0.43
13,CTATAATATTATAACAGTACATAATATTATATATAT [XGTACX_site1414],8.66 ± 0.33
14,TTTAAATAAAAATGGAGTACTCTAAAAAAAAAAAAA [XGTACX_site1233],8.44 ± 0.47
15,ATATGAAAAACTTCATGTACTTATTATAAAATATAA [XGTACX_site2725],8.4 ± 0.52
16,TATATTTTTTAAAAAAGTACAAAGTAATTATTGATT [XGTACX_site2420],8.49 ± 0.45
17,TGAAATGAAAGAACAGCACACATATATATTATATAT [CACACA_site8613],9.04 ± 0.45
18,GTAGTACATTCTAGAATACACACCTATATATATATA [CACACA_site522],9.34 ± 0.28
19,ATTCTAATTTTATGAAACGATTATTTTGAATTCATT [XGTACX_negctrl_site578],8.6 ± 0.45
20,ATTTTTAATTTTTTCACACATATATTTAAAATAAAA [CACACA_site4799],8.26 ± 0.52
21,GATTACCTTTTTTTTTTTTTTTTTTTTTTTTTTTTC [CACACA_negctrl_site147],8.66 ± 0.49
22,ATAAAAAAAAATATATGTACATATATAAATTGATAT [XGTACX_site7409],9 ± 0.55

row,Sequence,gcPBM binding intensity (ln)
1,CTTTTTTTTTTGTATTGTACTTTATTTTTACATCGT [XGTACX_site2918],9.02 ± 0.5
2,AATAGTGTCATAAAAACTATTATCATATAATGTGAA [CACACA_negctrl_site1578],8.62 ± 0.45
3,TAATTTATAACACGCGCACACATATATATATAGTAA [CACACA_site121],9.21 ± 0.35
4,TTGTTGTGTATTATCGTGCACATAATATAAAAGATT,8.83 ± 0.33
5,TTTCTTTTTAACTCTTACATAATAGGTGGTAGAAGG [TGCATGCA_negctrl_site176],8.35 ± 0.46
6,TTATTTATTTATTATAGTTCACTTGAAAATACAAGA [CACACA_negctrl_site1480],8.25 ± 0.41
7,CATATATACAGTAACACACACAAAAAAATATGAATA [CACACA_site3996],9.62 ± 0.41
8,ATAAAAAAAAAAAATACACACATATATATATATATA [CACACA_site1709],9.82 ± 0.41
9,AAAAAATATAAAAAAACACACAAAAAAAAAAAAAAA [CACACA_site1382],8.6 ± 0.59
10,TTCTTAAAAAATCAAACACACATATATAAATACATA [CACACA_site5301],8.66 ± 0.4
11,AAAGACGTTTATAAATGTACATACACTTTAAAAGTT [XGTACX_site8753],8.75 ± 0.47
12,CCCCATTTATCTTAAGCATGCCATGGTTTTAGATAT [TGCATGCA_site24],9.19 ± 0.099
13,AATTATTTTAGAAACACACAAATTAGAAAAAACATA [CACACA_site7673],8.69 ± 0.49
14,GTATATATCTCAGAGCATAATAGTATAATTCGGTCA [CACACA_negctrl_site876],8.84 ± 0.4
15,AATAACATTATTTTATGTACACATGAAAAATAAAAT [XGTACX_site4657],8.67 ± 0.38
16,TGTAATAAACTACTTTTTTTTTTTTTTTTTTTTTTT [CACACA_negctrl_site1021],8.58 ± 0.2
17,AATATCAAAATAACATGTACATGTTATATTTTATTT [XGTACX_site5891],8.71 ± 0.4
18,TGATATTTCATCATAGTGCAATATGGCATATAAATA [GTGCAC_site9433],8.69 ± 0.45
19,AATATATATATAAATAGTACATATAAAGAGAATTTT [XGTACX_site3168],8.84 ± 0.5
20,CAGAAATATTCTTATACACACTGTTCTTATATTCCT [CACACA_site4318],9 ± 0.47
21,ATTAAAACAAAATGTACACACATATAATTTAATGAC [CACACA_site878],9.09 ± 0.48
22,TTTATCTTTTTTTGTTGTACAGATGTTTATATTTTA [XGTACX_site4065],8.9 ± 0.49

row,Sequence,gcPBM binding intensity (ln)
1,AAAATGAAAATGAAAATGAAAATGGGAAAATGTCAA [TGCATGCA_negctrl_site488],8.87 ± 0.44
2,TATAATTATATGTATACACACACATACATTTACATA [CACACA_site9061],9.31 ± 0.3
3,TAAATAAAAAAGAATACACACAGCATGCATAAATAT [CACACA_site237],9.38 ± 0.35
4,TTATATATAAGTTTATTCATTTTTTTTTTTTTTTTT [XGTACX_negctrl_site573],8.28 ± 0.52
5,CATATATATCGTAATGCACACATGTAATTTCATAAT [CACACA_site811],9.18 ± 0.46
6,TCTGTATATTATTCAAGTACACAATATAAATATAAA [XGTACX_site7241],8.51 ± 0.48
7,TATTGTTTTTTTTACTGTACACAAGTAAATGAAAAA [XGTACX_site790],8.27 ± 0.42
8,AAAAAATTCAAAAGGTGTACAACATTATATTATTCC [XGTACX_site5118],8.88 ± 0.36
9,GTATATAATTAAAGTTGTACCCTTAAAAAAGGGAAA [XGTACX_site7278],8.46 ± 0.42
10,AAAAATAAAAAAATAAATACGTATACATATATAATA [TGCATGCA_negctrl_site551],8.82 ± 0.45
11,GAACAAATTAAATAGGTGCATTAACATGTTCTATTT [GTGCAC_site9729],8.88 ± 0.53
12,GATAACTTTTTTCTCACACACAAATATTTTAATCAT [CACACA_site7685],9.12 ± 0.42
13,TAAATGTGAACAATAGAAGTAATAAGAAGAATAAAA [CACACA_negctrl_site1080],8.74 ± 0.5
14,AATGAATAATTATTTTGTACATAATATTATATTTAT [XGTACX_site5350],8.71 ± 0.52
15,TTTATTTTTTGTGGCACACAGAAGAAACAAGAACAA [CACACA_site1696],8.72 ± 0.43
16,AATAGTAATTTGAATACACACAATAATATATTTATA [CACACA_site7055],8.88 ± 0.39
17,TAACACCAAACTAAATGTACACACATACATAAATAT [XGTACX_site2201],9.35 ± 0.28
18,TCTTATATGATATTTATTTATTTATTTATTTATTCA [GTGCAC_negctrl_site686],8.72 ± 0.49
19,GGAATAGTAATATATACACACAAATACATATATATA [CACACA_site67],9.29 ± 0.46
20,TTTATTTTTTAATGATGTACTATTTATCCAGAAAAG [XGTACX_site7750],8.22 ± 0.42
21,AAATTAAATGTAAGCACACATAAATTATACTCATAT [CACACA_site5782],8.91 ± 0.45
22,ACTTATACAAAATGTGCATGTTATATTTACAATAAT [TGCATGCA_site108],8.79 ± 0.35

# Reference: the supplement of paper PMC11417369
